# Laboratory results taken from publication PMC12136788.
# The other results are listed elsewhere or left out.
# T1: UNK ZnF1-3 (human, UniProt Q9C0B0 31-174)
# T1 sequence: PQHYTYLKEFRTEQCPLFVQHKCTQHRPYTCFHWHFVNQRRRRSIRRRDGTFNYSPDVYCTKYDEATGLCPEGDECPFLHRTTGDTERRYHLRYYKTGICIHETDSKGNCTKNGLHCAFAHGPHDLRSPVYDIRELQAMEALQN
# B1: chr11:29607782:29607783:+_ENSMUSG00000020458_ENSMUST00000102843|mus_mus|motif|central (ssRNA)
# RNA: GGGAGUUCUACAGUCCGACGAUCUGCAUUAAAACUUUCAGGCUCUUUAAUUUCUUCCUUUGAGUCCGAUGUUUUUAGUGCGGCACUCAUGGCUUCUUCAUAUGGUGGGGGAUUUUCAGGCUCAAGCUUUAUACCGUCAUAACUCAACAGAGGAUUGAGCAUCA
# B2: 66753787_66753907_340_3pUTR_ENSG00000205268_ENST00000401827|human|control|control (ssRNA)
# RNA: GGGAGUUCUACAGUCCGACGAUCGCCGCCGGCCCCUGCAGUGGGAGGGGGCCGCGGCUCGGGGGCUCCGGGCCGAGACGGGGGCAGGGCGGGCGGGGACCGACCCCGGGCUGGGAAGCCGCGCUCACGCCUCCCCAACCCCAGCAACAGAGGAUUGAGCAUCA
# B3: chr4:134026413:134026414:+_ENSMUSG00000028832_ENSMUST00000130253|mus_mus|motif|central (ssRNA)
# RNA: GGGAGUUCUACAGUCCGACGAUCUACAAAUCAAAAGAAAUCAAGUAACAUUUUUUUUUUAAAAAGCUUAACAUUUUGGACGGACAAAUACCAUCUUGAGGAAUUAGUACUUGACAGUCACUCCCUAGGAAACAAAGAAUGGUGCAACAGAGGAUUGAGCAUCA
# B4: chr1:151039735:151039736:+_ENSG00000213190_ENST00000368921|hu_hu|FALSE|FALSE (ssRNA)
# RNA: GGGAGUUCUACAGUCCGACGAUCCCCAGGCCUUCCAGCUCCGACAGAUCCAGUUCUGGGAUGGGCAUCCUCCAGAAAAGAAAGGAACUGUACUGGCUACUCACAGGGUCCCUCAUAGCUUCCUGUUAUCAAUCAAUUACUGGCCAACAGAGGAUUGAGCAUCA
# B5: chr1:163122374:163122375:-_ENSG00000143248_ENST00000313961|hu_hu|FALSE|FALSE (ssRNA)
# RNA: GGGAGUUCUACAGUCCGACGAUCAGUGAAGUGGUCAAUAUUCACCUCUUUAGGAGCCUCCGUUUGAAUGAAUUCUUCAUAAAUUUGCUUUGCCUUCUCAGCCAUCUUGGCAGGGGACUUGAUCUUCUUGUAAUCCUCACAGGCCAACAGAGGAUUGAGCAUCA
# B6: chr17:64801638:64801639:+_ENSG00000154229_ENST00000413366|hu_mus|hu_hu_hu_mus_False|88_98 (ssRNA)
# RNA: GGGAGUUCUACAGUCCGACGAUCUAUAUAUAUAUAUAUAUACACACACAUAUGUAGUAAAACCCUAGUUAAACGUGUAAAGUAGCCAUUCAUUUUUAAAAUUACAUCUACAUUAAAAAAUUAAUAUAUCUGAUAGAGUGCCAGCAACAGAGGAUUGAGCAUCA
# B7: 119990608_119994092_1138_CDS_ENSMUSG00000061306_ENSMUST00000103018|mouse|control|control (ssRNA)
# RNA: GGGAGUUCUACAGUCCGACGAUCAAAGGUUCCAUCUUUUUGCUGCUGCUCAAACAGCAGUGUGUUCAAGGCCUGCCUGCACGGCAGAAUCAUCAUGGGGAAGCCCACAGCCACAGACAUCACGAAGCCCACUCGGAUCAUCUCCAACAGAGGAUUGAGCAUCA
# B8: chr17:65740002:65740003:+_ENSG00000130935_ENST00000581375|hu_hu|hu_hu_hu_mus_False|8_58 (ssRNA)
# RNA: GGGAGUUCUACAGUCCGACGAUCAACAAAUCUUUCUUCCCUGGACGAACAGGAAGAUUCAUAUUAAAAAAAAUAUAUGUCUAUGAAGUUAGGUGUGGUGGCCACACCUUUACUCCCAGCACUUUGGGAAUAUAAUCUCUGAGUCAACAGAGGAUUGAGCAUCA
# B9: chr14:78183846:78183847:+_ENSG00000119705_ENST00000557342|hu_hu|hu_hu_hu_mus_False|8_108 (ssRNA)
# RNA: GGGAGUUCUACAGUCCGACGAUCUCUGUCUCAAAAAUCUUCAUCAGAUGUUUGAGCUCCGUGCAAAGCCUUUGCUCUUUGAGCUUGAACGUGGAUCUAUGGGAGGGAAAGCACUGUCAGAAAAGGUUGUAGUGCAUUUAAAGACAACAGAGGAUUGAGCAUCA
# B10: chr4:144460044:144460045:+_ENSG00000153147_ENST00000283131|hu_mus|hu_hu_hu_mus_False|58_98 (ssRNA)
# RNA: GGGAGUUCUACAGUCCGACGAUCACGGUCCAUAGCCUGAAGAUCUACUUGCGGAUUCCAAUCUGAGUCAUAUAAAAUUACUACAUCAGCAGUUGCAAGAUUGAUGCCCAGACCACCAGCACGUGUGCUUAGCAUAAAUACAAACAACAGAGGAUUGAGCAUCA
# B11: chr1:115276673:115276674:-_ENSG00000009307_ENST00000339438|perfect_dup|motif|central (ssRNA)
# RNA: GGGAGUUCUACAGUCCGACGAUCUGUGAAUUCCACGUCAUCUCCAGGCUGUAGGGUUUCUAGGUCACCUUUAAAUUCACGGUAGUGAAAGAAUAUCUCUUUUACAACAUCACCUCUUUCGAUAAAGCCAAACGCCUCCUUCAUCAACAGAGGAUUGAGCAUCA
# B12: chr14:78183846:78183847:+_ENSG00000119705_ENST00000557342|hu_hu|hu_hu_hu_mus_False|38_48 (ssRNA)
# RNA: GGGAGUUCUACAGUCCGACGAUCUCUCAGAAAUCUUUCUUCAUCAGAUGUUUGAGCUCCGUGCAAAGCCUUUGCUCUUUGAGCUUGAACCUGGACCUUUACUCCAUAAAGCACUGUCAGAAAAGGUAAUUUUUUUUUUAAAGACAACAGAGGAUUGAGCAUCA
# B13: chr10:19624517:19624518:-_ENSMUSG00000020003_ENSMUST00000020182|mus_mus|motif|central (ssRNA)
# RNA: GGGAGUUCUACAGUCCGACGAUCCUCAUUGUUUUCACUCCAGGUAACGUCAAACAAGCCGUCAUUCCAGUCAAAGCUUCGGAAAAUCUGAAGUCCAGAUUCAUUUUGAUCCAAUACUAAUAGAGUUCCACAGCCCGCGAUGCCCAACAGAGGAUUGAGCAUCA
# B14: 56591734_56591854_1769_CDS_ENSG00000188021_ENST00000338222|human|control|control (ssRNA)
# RNA: GGGAGUUCUACAGUCCGACGAUCUAUGGGCCCAAUGGGGCCUAUGGGGGUAAAAGGGACUAUAGGGCCUAUGGGGCCUAUGGGGGUGACUGGGCCUACAGGGCCUAUAGCGGUUCCCAGCACCCCCACCCCCACACCUGGAGUCAACAGAGGAUUGAGCAUCA
# B15: 47705432_47705552_2233_CDS_ENSG00000095002_ENST00000543555|human|control|control (ssRNA)
# RNA: GGGAGUUCUACAGUCCGACGAUCAAAAUGGGUUGCAAACAUGCAAAAAGCACCAAUCUUUGUUGCAAUGUAUUCUGAUAUAGCCCAUGCUAACCCAAAUCCAUCGUAGGUAGAAGUUCCUCUUCCCAAUUCAUCUAUGAUUAUCAACAGAGGAUUGAGCAUCA
# B16: chr17:30678820:30678821:+_ENSG00000010244_ENST00000394673|hu_hu|FALSE|FALSE (ssRNA)
# RNA: GGGAGUUCUACAGUCCGACGAUCAUUUAAAAUGCUUUGCUUUUUGGUGCUGAAUAAGGAUCUUCUCAUCAUCAAAAUCUCUAUUACAAUACCAGCACCACGGCUUCAGCUGCUUCUUCUUCUUGCGACCCAUAACUGUGUUCUCAACAGAGGAUUGAGCAUCA
# B17: chr4:115894766:115894767:+_ENSMUSG00000028698_ENSMUST00000030464|mus_hu|mus_mus_mus_hu_True|1_88 (ssRNA)
# RNA: GGGAGUUCUACAGUCCGACGAUCUUCCACACGGAAAUGUACUUCGGGUUUCCAACGGGCCAGUACCAGUCCGGCCAAACUACCCGAACAGGGUCCUCCCCCUCUCUCCUACAGAACACAACAAAAUGCCCCCGAACCCCGAACCAACAGAGGAUUGAGCAUCA
# B18: chr8:74858975:74858976:-_ENSG00000154582_ENST00000284811|hu_mus|hu_hu_hu_mus_True|18_88 (ssRNA)
# RNA: GGGAGUUCUACAGUCCGACGAUCGACCUUGUAGGUAAAAUACAUGCAUACUUUCGAUAGCACAUGUGAGGGGAUCUCUCUAAAAUUGACCUCGUUGGUUUCAUUCUCAGCAAACUGACCUGGGCCACUCAACAUAGCCUUUAUCAACAGAGGAUUGAGCAUCA
# B19: chr4:175158536:175158537:-_ENSG00000164117_ENST00000503293|hu_mus|FALSE|FALSE (ssRNA)
# RNA: GGGAGUUCUACAGUCCGACGAUCGAUUUUACACACAGGCUGGACUGGAGUGACCAGUGCUGAUGCAACCCUGCUGCCACUAAGUCUGUCCCUGGGUAGCCUCAGUCUGGAGUAAAAAGUUGAAGUUCGAACACUUGUGCUUUUCAACAGAGGAUUGAGCAUCA
# B20: 49558617_49558737_2561_CDS_ENSMUSG00000037892_ENSMUST00000035931|mouse|control|control (ssRNA)
# RNA: GGGAGUUCUACAGUCCGACGAUCCCUCGUUGCAAACAGGACCAUAAUAACCAGCAACACAGCACAAAUUGCUCCCAAGGAAAUAAUUAUGAUCAUGGACACAUCCAAGGAUGCGCGGCUGACAGAGGUCAUGGCUGUGCUUGUCAACAGAGGAUUGAGCAUCA
# B21: 99856004_99856124_904_CDS_ENSG00000132424_ENST00000438806|human|control|control (ssRNA)
# RNA: GGGAGUUCUACAGUCCGACGAUCUUCUGUGGCCUUUUUUUCUUUUUUGGACAAUUGUGAACGUUGUUGUUCCAUUCUUUCUUUCUCCAAUUUCUUCUGCUUUUCACGUUCCAUUUUUUCAAGACCUUCGCGAAUCCAAGCGGGCAACAGAGGAUUGAGCAUCA
# B22: chr21:38862523:38862524:+_ENSG00000157540_ENST00000338785|hu_mus|motif|central (ssRNA)
# RNA: GGGAGUUCUACAGUCCGACGAUCUCGGAAGUUGGUGUUUCUCAACAAAUCAUAGAGAUUAUAGGACAGCAUUUCAAACACGGAACAGAGAUGGUUUCGAAACAUAAAGUGGCGUUUCAAAUGCACUAUGUAGUACUUCAUUUCCAACAGAGGAUUGAGCAUCA
# Target: T1, UNK ZnF1-3
# Test: nsRBNS (natural sequence RNA bind-n-seq); RBNS binding buffer (assumed for nsRBNS): 25 mM Tris pH 7.5, 150 mM KCl, 3 mM MgCl2, 0.01% Triton X-100, 500 ug/ml BSA, 20 U/ml SUPERase-In, 4 C; UNK is unkempt and MSI1 is Musashi-1; names of the RNAs are library labels; protein concentration not given here; high values mean tight binding
row,Binder,binding signal
1,B1,0.58 enrichment R
2,B2,0.68 enrichment R
3,B3,1.5 enrichment R
4,B4,1.51 enrichment R
5,B5,1.02 enrichment R
6,B6,1.74 enrichment R
7,B7,0.463 enrichment R
8,B8,1.12 enrichment R
9,B9,1.34 enrichment R
10,B10,1.36 enrichment R
11,B11,1.2 enrichment R
12,B12,0.664 enrichment R
13,B13,0.74 enrichment R
14,B14,0.573 enrichment R
15,B15,0.665 enrichment R
16,B16,0.549 enrichment R
17,B17,1.1 enrichment R
18,B18,0.716 enrichment R
19,B19,0.796 enrichment R
20,B20,1.44 enrichment R
21,B21,0.236 enrichment R
22,B22,1.06 enrichment R
